One block for each binder: values may come before it.
Key:
[1] = molecular target: T1, main peptide chain X2; assay: flow cytometry with anti-hIL-15 PE on RaceCar-infected NK92 and T cells (legend of FIG. 4)
T1 construct: Membrane chain of a chimeric antigen receptor: AntiMHC/GP100-VHH, IL15Rαsushi, CD8 transmembrane domain, 41BB + CD3ζ; Expressed on NK92 and T cells; also called main peptide chain of RaceCar-2 and RaceCar-3
From the text: (§1) 1.) RaceCar-1-NK92, RaceCar-2-NK92, RaceCar-3-NK92, RaceCar-4-NK92, RaceCar-5-NK92, RaceCar-6-NK92, RaceCar-7-NK92, RaceCar-9-NK92, RaceCar-10-NK92, RaceCar-11-NK92, RaceCar-12-NK92, RaceCar-13-NK92, RaceCar-14-NK92, RaceCar-1-T, RaceCar-2-T, RaceCar-3-T, RaceCar-4-T, RaceCar-5-T, RaceCar-6-T, RaceCar-7-T, RaceCar-9-T, RaceCar-10-T, RaceCar-11-T, RaceCar-12-T, RaceCar-13-T, RaceCar-14-T cells obtained in example 4, are suspended in PBS (phosphate buffered saline) respectively, the concentration of cells is controlled to be in the range of 1*10\hat{ }6/ml.
(§2) 2.) 1.5 μl of anti-hIL-15 PE conjugates is (R&D, IC2471P) is added into 200 μl of treated cells and incubates on ice for 30 minutes. The supernatants are removed by centrifugation and the cells are re-suspended by adding an equal amount of PBS (phosphate buffer saline).
(§3) 3.) FACS analysis to verify RaceCar expressed on cell surface (FIG. 4). The horizontal coordinate in the figure represents the IL15 level, the T cell and the NK92 are not infected and used as negative control and there is no expression of IL15 on the surface detected. The expression of different levels of IL15 can be detected on the surfaces of T cells and NK92 cells infected with RaceCar virus. […] Meanwhile, IL15 is on a main peptide chain of RaceCar -12 and RaceCar-13, and can be directly detected.

[2] = molecular target: T2, main peptide chain X7; assay: as above
T2 construct: Membrane chain of a chimeric antigen receptor: extracellular region of PD1, IL15Rαsushi, CD8 transmembrane domain, 41BB + CD3ζ; Expressed on NK92 and T cells; also called main peptide chain of RaceCar-10
From the text: as §1, §2, §3

T1 sequence (chain, as listed by the source): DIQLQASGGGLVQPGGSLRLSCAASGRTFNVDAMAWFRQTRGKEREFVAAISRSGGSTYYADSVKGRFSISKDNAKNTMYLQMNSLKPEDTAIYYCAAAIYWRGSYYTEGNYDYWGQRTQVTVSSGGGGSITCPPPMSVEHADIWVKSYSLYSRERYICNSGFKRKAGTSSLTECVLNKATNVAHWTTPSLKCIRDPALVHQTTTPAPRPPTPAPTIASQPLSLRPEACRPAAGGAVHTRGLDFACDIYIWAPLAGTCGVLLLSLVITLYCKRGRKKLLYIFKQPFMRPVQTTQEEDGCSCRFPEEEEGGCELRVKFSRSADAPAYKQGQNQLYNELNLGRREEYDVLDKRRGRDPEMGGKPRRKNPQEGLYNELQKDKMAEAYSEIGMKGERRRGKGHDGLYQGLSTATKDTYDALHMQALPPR
T2 sequence (chain, as listed by the source): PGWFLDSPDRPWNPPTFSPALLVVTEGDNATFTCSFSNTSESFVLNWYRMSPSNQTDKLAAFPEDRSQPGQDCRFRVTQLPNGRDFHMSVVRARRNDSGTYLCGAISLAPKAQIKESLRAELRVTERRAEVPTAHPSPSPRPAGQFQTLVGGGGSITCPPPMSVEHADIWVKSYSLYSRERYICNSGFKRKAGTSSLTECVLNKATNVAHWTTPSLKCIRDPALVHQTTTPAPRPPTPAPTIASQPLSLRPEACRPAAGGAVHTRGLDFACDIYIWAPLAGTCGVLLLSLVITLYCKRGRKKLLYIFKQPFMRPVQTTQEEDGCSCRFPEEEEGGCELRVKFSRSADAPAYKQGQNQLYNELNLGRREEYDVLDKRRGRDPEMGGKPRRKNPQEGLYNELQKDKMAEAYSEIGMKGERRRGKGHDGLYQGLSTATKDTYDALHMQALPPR

binding result [1]: binds
B1: co-peptide chain Y2 (other)
chain: DVQLQASGGGLVQAGDSLRLSCAASGRTFSTYNMGWFRQAPGKDREFVAAIMWSGGSTYYADSVKGRFTISKDNAKNTVYLQMNSLKPEDTAVYFCWSTDDYGVDSWGQGTQVTVSSGGGGS[sequence of about 120 residues omitted]
notes: A 2A signal peptide is added in front of it for expression; also called co-peptide chain of RaceCar-3

binding result [2]: binds
B2: co-peptide chain Y5 (other)
chain: QLLESGGGLVQPGGSLRLSCAASGYRISSDDMSWVRQAPGKGLEWVSTIYETDGSTYYADSVKGRFTISRDNSKNTLYLQMNSLRAEDTAVYYCARANFYSEQPFQFWGQGTLVTVSSGGGGS[sequence of about 120 residues omitted]
notes: A 2A signal peptide is added in front of it for expression; also called co-peptide chain of RaceCar-10 and RaceCar-14

— patent US20220064595A1 (SHENZHEN BEIKE BIOTECHNOLOGY, published 2022)
